Data reported in the BET-seq Pho4 binding data (Le et al. 2018).
The other results are listed elsewhere or left out. Values were computed here from the reads of four pooled replicates and scatter widely.

Molecular target: T1, Pho4 (S. cerevisiae) (UniProt P07270)
T1 sequence: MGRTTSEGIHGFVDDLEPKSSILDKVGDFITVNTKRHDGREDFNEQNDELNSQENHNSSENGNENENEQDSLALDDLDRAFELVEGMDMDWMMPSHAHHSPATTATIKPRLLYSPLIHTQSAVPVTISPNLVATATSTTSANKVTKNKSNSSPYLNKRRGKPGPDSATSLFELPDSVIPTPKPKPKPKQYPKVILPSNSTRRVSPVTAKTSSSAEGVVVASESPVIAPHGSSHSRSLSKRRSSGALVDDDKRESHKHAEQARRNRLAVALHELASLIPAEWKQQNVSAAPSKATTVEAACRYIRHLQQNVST
Assay: relative binding free energy (BET-seq); higher = weaker binding
Conditions: reference: library average

Row | Sequence | relative binding free energy
1 | CTTTTCACGTGGTGTA | 0.25 kcal/mol
2 | GTTGACACGTGATGTA | 0.14 kcal/mol
3 | CAGGACACGTGGCGTG | -0.01 kcal/mol
4 | TGAGTCACGTGGCGTT | 0.08 kcal/mol
5 | GGTTTCACGTGTGGTC | 0.31 kcal/mol
6 | GTTAACACGTGTCGTA | 0.14 kcal/mol
7 | TGGGTCACGTGGATGA | 0.18 kcal/mol
8 | GTCGTCACGTGGCGGA | 0.07 kcal/mol
9 | AGTGCCACGTGGATTT | -0.03 kcal/mol
10 | TATGCCACGTGTGCGT | -0.14 kcal/mol
11 | TTGTACACGTGGTGCT | -0.01 kcal/mol
12 | GTGAGCACGTGTGAGG | 0.09 kcal/mol
13 | AATCGCACGTGGGTGG | -0.07 kcal/mol
14 | AGGAGCACGTGTGTTT | -0.02 kcal/mol
15 | TTTCGCACGTGGCGGG | -0.1 kcal/mol
16 | TTTGGCACGTGTGTCA | -0.12 kcal/mol
17 | ATTTTCACGTGAAAGA | 0.39 kcal/mol
18 | TGCTGCACGTGTTTGG | 0.09 kcal/mol
19 | GAGAGCACGTGTCGTG | -0.05 kcal/mol
20 | TCGTGCACGTGTTGGC | -0.1 kcal/mol
21 | TACGTCACGTGAGGAG | 0.27 kcal/mol
22 | TAAGTCACGTGAGTAT | 0.28 kcal/mol
23 | GTTGGCACGTGGGTGG | -0.19 kcal/mol

Row | Sequence | relative binding free energy
24 | ATTGTCACGTGGGTCG | 0.04 kcal/mol
25 | TTGGTCACGTGGCGGC | 0.06 kcal/mol
26 | TGGGTCACGTGCGTAT | 0.06 kcal/mol
27 | AGGGTCACGTGGATTC | 0.18 kcal/mol
28 | AGTAGCACGTGGGTTC | -0.09 kcal/mol
29 | AGGGTCACGTGCCTGG | 0.09 kcal/mol
30 | GTGTACACGTGTGGCC | 0.18 kcal/mol
31 | TCAGGCACGTGGCGGG | -0.29 kcal/mol
32 | AGTTTCACGTGGGTTC | 0.28 kcal/mol
33 | TGGTGCACGTGTATTC | -0.07 kcal/mol
34 | TAATCCACGTGTATTG | 0.09 kcal/mol
35 | GGTGCCACGTGTGTAA | 0.09 kcal/mol
36 | TGGGTCACGTGGAGAA | 0.1 kcal/mol
37 | GTAGTCACGTGATTTA | 0.23 kcal/mol
38 | TATTACACGTGTGCGG | 0.21 kcal/mol
39 | TTTATCACGTGATAGC | 0.21 kcal/mol
40 | ATGGGCACGTGAGTAC | 0.09 kcal/mol
41 | AATTTCACGTGTGTAT | 0.31 kcal/mol
42 | GTTAGCACGTGAATGT | 0.29 kcal/mol
43 | GAGGCCACGTGGAGTG | -0.05 kcal/mol
44 | TGAATCACGTGTTTTG | 0.1 kcal/mol
45 | GTTGGCACGTGGCTCG | -0.2 kcal/mol
46 | GGTCTCACGTGTTATG | 0.3 kcal/mol

Row | Sequence | relative binding free energy
47 | GATGGCACGTGGTTGA | -0.06 kcal/mol
48 | TTGGGCACGTGGAGTT | 0.05 kcal/mol
49 | TCATTCACGTGATGGT | 0.14 kcal/mol
50 | GAGGTCACGTGTCGGC | 0.15 kcal/mol
51 | GGTTTCACGTGGATTC | 0.32 kcal/mol
52 | TAAGGCACGTGTGCAA | -0.06 kcal/mol
53 | AGATCCACGTGGTTGT | -0.09 kcal/mol
54 | GTGAGCACGTGTAAAA | 0.21 kcal/mol
55 | TTAGTCACGTGATGAC | 0.24 kcal/mol
56 | GGATTCACGTGCGTTA | 0.4 kcal/mol
57 | GATTTCACGTGTTATT | 0.37 kcal/mol
58 | AGTAGCACGTGGGTTT | -0.15 kcal/mol
59 | TGGCTCACGTGGTAGC | 0.24 kcal/mol
60 | GATGTCACGTGAGATG | 0.17 kcal/mol
61 | CGTTTCACGTGATTGC | 0.46 kcal/mol
62 | TGATGCACGTGCGGGG | -0.2 kcal/mol
63 | ATGTTCACGTGTGCTA | 0.16 kcal/mol
64 | GCTTTCACGTGTGGGC | 0.27 kcal/mol
65 | TTCGGCACGTGTAGGT | 0.04 kcal/mol
66 | TTTGTCACGTGCTCAT | 0.03 kcal/mol
67 | GAGGCCACGTGATGGG | 0.17 kcal/mol
68 | TTGTTCACGTGTAGAA | 0.28 kcal/mol
69 | TGGTTCACGTGAAGCG | 0.26 kcal/mol

Row | Sequence | relative binding free energy
70 | GTATTCACGTGGGTGT | 0.15 kcal/mol
71 | TTTCTCACGTGATATT | 0.38 kcal/mol
72 | AGGGTCACGTGCAGGT | 0.04 kcal/mol
73 | AGCGTCACGTGTCGAG | 0.18 kcal/mol
74 | GTTTGCACGTGGGTTC | 0 kcal/mol
75 | GTACGCACGTGTGTTT | 0.06 kcal/mol
76 | TATATCACGTGAGGGC | 0.22 kcal/mol
77 | TTCAACACGTGGGGGC | 0.09 kcal/mol
78 | GTGTTCACGTGTGATT | 0.43 kcal/mol
79 | GGTCGCACGTGGTGGC | -0.04 kcal/mol
80 | CTGTTCACGTGAATTT | 0.46 kcal/mol
81 | TAGGGCACGTGAAGTA | 0.18 kcal/mol
82 | GGTCTCACGTGATGAT | 0.39 kcal/mol
83 | TGCGGCACGTGATTGT | 0.15 kcal/mol
84 | TGAGTCACGTGTTAAT | 0.1 kcal/mol
85 | ATGTGCACGTGTCTAA | 0.05 kcal/mol
86 | TATAGCACGTGTAAGG | -0.01 kcal/mol
87 | TGAAACACGTGGATGG | -0.04 kcal/mol
88 | GAATGCACGTGTTAGT | 0 kcal/mol
89 | CTTTTCACGTGGGAAT | 0.2 kcal/mol
90 | AGGGTCACGTGAACGG | 0.35 kcal/mol
91 | GGGAACACGTGAAGGG | 0.34 kcal/mol
92 | GTAGTCACGTGGCCTT | 0.12 kcal/mol

Row | Sequence | relative binding free energy
93 | AAGTACACGTGTTTGA | 0.08 kcal/mol
94 | ACTGTCACGTGAGGCG | 0.25 kcal/mol
95 | AAATGCACGTGTAGAT | 0.26 kcal/mol
96 | AGGGTCACGTGAGGTT | 0.3 kcal/mol
97 | TGGTTCACGTGGCGCT | 0.05 kcal/mol
98 | AGAATCACGTGTGTTG | 0.04 kcal/mol
99 | GGGTGCACGTGACATG | 0.06 kcal/mol
100 | TAAAGCACGTGGAGGT | 0.03 kcal/mol
101 | GTGATCACGTGGGCAA | 0.07 kcal/mol
102 | GGGGGCACGTGACGTT | -0.02 kcal/mol
103 | TTATTCACGTGCGGTC | 0.26 kcal/mol
104 | AGGATCACGTGAGTAG | 0.3 kcal/mol
105 | GGTAGCACGTGAGTCT | 0.18 kcal/mol
106 | GTTATCACGTGTAATG | 0.16 kcal/mol
107 | ATGGCCACGTGGGTAG | -0.09 kcal/mol
108 | TGAAGCACGTGTGTGT | 0.03 kcal/mol
109 | TGGTGCACGTGGCGTA | -0.18 kcal/mol
110 | AGAAGCACGTGTATTG | -0.26 kcal/mol
111 | GTCTGCACGTGTGGAG | 0.18 kcal/mol
112 | CATTGCACGTGTATTG | -0.05 kcal/mol
113 | TGAGTCACGTGGGATA | 0.09 kcal/mol
114 | GGGATCACGTGTCGTG | 0.27 kcal/mol
115 | TAGGACACGTGTTCTG | -0.06 kcal/mol
